Data published in patent publication US20100075953A1, “SUBSTITUTED PIPERAZINES, (1,4) DIAZEPINES, AND 2,5-DIAZABICYCLO (2.2.1) HEPTANES AS HISTAMINE H1 AND/OR H3 ANTAGONISTS OR HISTAMINE H3 REVERSE ANTAGONISTS” (Glaxo Group Limited, priority 2002, published 2010).
Some entries share one result that the patent states for a list of compounds.

Target: histamine H3 receptor (Homo sapiens, UniProt Q9Y5N1)
Assay: Histamine H3 functional antagonist assay
Settings: membranes of CHO K1 cells expressing human H3, [35S]GTPgammaS SPA, histamine 0.3 μM

Chain of histamine H3 receptor (Q9Y5N1 whole entry): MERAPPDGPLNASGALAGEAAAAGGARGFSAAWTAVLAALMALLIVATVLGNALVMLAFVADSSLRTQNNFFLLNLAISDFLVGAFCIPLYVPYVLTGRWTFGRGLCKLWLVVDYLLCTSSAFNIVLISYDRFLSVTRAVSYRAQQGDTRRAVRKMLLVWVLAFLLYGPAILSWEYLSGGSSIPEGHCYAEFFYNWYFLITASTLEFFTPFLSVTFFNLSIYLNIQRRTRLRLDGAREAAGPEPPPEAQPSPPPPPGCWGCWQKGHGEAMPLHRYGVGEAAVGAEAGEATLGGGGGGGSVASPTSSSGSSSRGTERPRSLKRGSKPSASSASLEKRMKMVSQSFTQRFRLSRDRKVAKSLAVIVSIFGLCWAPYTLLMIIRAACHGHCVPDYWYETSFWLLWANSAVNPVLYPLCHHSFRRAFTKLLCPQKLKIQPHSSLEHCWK

| SMILES | antagonism in the histamine H3 functional antagonist assay (pKb) | also measured |
| --- | --- | --- |
| O=C(C1CC1)N1CCCN(Cc2ccc(OCCCN3CCCCC3)cc2)CC1 [Example E23, 1-Cyclopropyl-1 -{4-[4-(3-piperidin-1-yl-propoxy)-benzyl]-[1,4]diazepan-1-yl}-methanone] | > 8.4 | antagonism in the histamine H3 functional antagonist assay (pKb) (listed as Example E23): > 6.5 pKb |
| N#Cc1cc(OCCCN2CCCCC2)ccc1N1CCN(C(=O)c2ccc(C(=O)N3CCCC3)cc2)CC1 [Example E309, 5-{[3-(1-Piperidinyl)propyl]oxy}-2-(4-{[4-(1-pyrrolidinylcarbonyl)phenyl]carbonyl}-1-piperazinyl)benzonitrile] | > 8.4 | antagonism in the histamine H3 functional antagonist assay (pKb) (listed as Example 309): > 6.5 pKb |
| O=C(c1cnn2cccnc12)N1CCN(c2ccc(OCCCN3CCCCC3)cc2)CC1 [Example E395, 3-{[4-(4-{[3-(1-Piperidinyl)propyl]oxy}phenyl)-1-piperazinyl]carbonyl}pyrazolo[1,5-a]pyrimidine] | > 6.5 |  |
| O=S(=O)(c1cc(Cl)cc(Cl)c1)N1CCCN(Cc2ccc(OCCCN3CCCCC3)cc2)CC1 [Example E29, 1-(3,5-Dichloro-benzenesulfonyl)-4-[4-(3-piperidin-1-yl-propoxy)-benzyl]-[1,4]diazepane] | > 6.5 |  |
| CC(C)N1CCC(Oc2ccc(N3CCN(C(=O)N4CCCCC4)CC3)cc2)CC1 [Example E294, 1-(4-{[1-(1-Methylethyl)-4-piperidinyl]oxy}phenyl)-4-(1-piperidinylcarbonyl)piperazine] | > 6.5 |  |
| O=C(c1noc2ccccc12)N1CCN(c2ccc(OCCCN3CCCCC3)cc2)CC1 [Example E390, 3-{[4-(4-{[3-(1-Piperidinyl)propyl]oxy}phenyl)-1-piperazinyl]carbonyl}-1,2-benzisoxazole] | > 6.5 |  |
| O=C(c1ccc(Cl)c(Cl)c1)N1CCCN(Cc2ccc(OCCCN3CCCCC3)cc2)CC1 [Example E22, 1-(3,4-Dichloro-phenyl)-1-{4-[4-(3-piperidin-1-yl-propoxy)-benzyl]-[1,4]diazepan-1-yl}-methanone] | > 6.5 |  |
| O=C(C1CC1)N1CCCN(c2ccc(OCCCN3CCCCC3)cc2)CC1 [Example E451, 1-Cyclopropyl-1-{4-[4-(3-piperidin-1-yl-propoxy)-phenyl]-[1,4]-diazepan-1-yl}-methanone] | > 6.5 |  |
| C[C@@H]1CC[C@H](C)N1C(=O)N1CCN(c2ccc(OCCCN3CCCCC3)cc2)CC1 [Example E278, 1-{[(2R,5S)-2,5-Dimethyl-1-pyrrolidinyl]carbonyl}-4-(4-{[3-(1-piperidinyl)propyl]oxy}phenyl)piperazine] | > 8.4 | antagonism in the histamine H3 functional antagonist assay (pKb) (listed as Example 278): > 6.5 pKb |
| O=C(O)c1ccc(C(=O)N2CCN(c3ccc(OCCCN4CCCCC4)cc3)CC2)cc1 [Example E433, 4-{[4-(4-{[3-(1-Piperidinyl)propyl]oxy}phenyl)-1-piperazinyl]carbonyl}benzoic acid] | > 6.5 |  |
| O=C(c1ccc2ncsc2c1)N1CCN(c2ccc(OCCCN3CCCCC3)cc2)CC1 [Example E422, 6-{[4-(4-{[3-(1-Piperidinyl)propyl]oxy}phenyl)-1-piperazinyl]carbonyl}-1,3-benzothiazole] | > 6.5 |  |
| C[C@H]1CN(c2ccc(OCCCN3CCCCC3)cc2)CCN1C(=O)c1ccncc1 [Example E320, (2S)-2-Methyl-4-(4-{[3-(1-piperidinyl)propyl]oxy}phenyl)-1-(4-pyridinylcarbonyl)piperazine] | > 8.4 | antagonism in the histamine H3 functional antagonist assay (pKb) (listed as Example 320): > 6.5 pKb |
| O=C(c1ccccc1)N1CCN(c2ccc(OCCCN3CCC(F)(F)C3)cc2)CC1 [Example E463, 1-(4-{4-[3-(3,3-Difluoro-pyrrolidin-1-yl)-propoxy]-phenyl}-piperazin-1-yl)-1-phenyl-methanone] | > 6.5 |  |
| CC(C)N1CCC(Oc2ccc(N3CCN(C(=O)C4CCS(=O)(=O)CC4)CC3)cc2)CC1 [Example E267, 1-[(1,1-Dioxidotetrahydro-2H-thiopyran-4-yl)carbonyl]-4-(4-{[1-(1-methylethyl)-4-piperidinyl]oxy}phenyl)piperazine] | > 8.4 | antagonism in the histamine H3 functional antagonist assay (pKb) (listed as Example 267): > 6.5 pKb |
| O=C(c1ccc(F)cc1Br)N1CCN(c2ccc(OCCCN3CCCCC3)cc2)CC1 [Example E371, 1-[(2-Bromo-4-fluorophenyl)carbonyl]-4-(4-{[3-(1-piperidinyl)propyl]oxy}phenyl)piperazine] | > 6.5 |  |
| CC(C)(C)OC(=O)N1CCN(c2ccc(OCCCN3CCCCC3)c3ccccc23)CC1 [Example E447, 4-[4-(3-Piperidin-1-yl-propoxy)-naphthalen-1-yl]-piperazine-1-carboxylic acid tert-butyl ester] | > 6.5 |  |
| O=C(c1ccc(F)cc1)N1CCCN(Cc2ccc(OCCCN3CCCCC3)cc2)CC1 [Example E19, 1-(4-Fluoro-phenyl)-1-{4-[4-(3-piperidin-1-yl-propoxy)-benzyl]-[1,4]diazepan-1-yl}-methanone] | > 8.4 | antagonism in the histamine H3 functional antagonist assay (pKb) (listed as Example E19): > 6.5 pKb |
| O=C(c1cccc2cccnc12)N1CCN(c2ccc(OCCCN3CCCCC3)cc2)CC1 [Example E375, 8-{[4-(4-{[3-(1-Piperidinyl)propyl]oxy}phenyl)-1-piperazinyl]carbonyl}quinoline] | > 6.5 |  |
| C[C@@H]1CN(c2ccc(OCCCN3CCCCC3)cc2)[C@H](C)CN1C(=O)c1ccccc1 [Example E455, 1-{(2R,5R)-2,5-Dimethyl-4-[4-(3-piperidin-1-yl-propoxy)-phenyl]-piperazin-1-yl}-1-phenyl-methanone] | > 8.4 | antagonism in the histamine H3 functional antagonist assay (pKb) (listed as Example 455): > 6.5 pKb |
| O=C(c1ccc2c(c1)OCO2)N1CCN(Cc2ccc(OCCCN3CCCCC3)cc2)CC1 [Example E2, 1-Benzo[1,3]dioxol-5-yl-1-{4-[4-(3-piperidin-1-yl-propoxy)-benzyl]-piperazin-1-yl}-methanone] | > 6.5 |  |
| COc1ccc(C(=O)N2CCN(c3ccc(OCCCN4CCCCC4)cc3)CC2)cc1 [Example E334, 1-{[4-(Methyloxy)phenyl]carbonyl}-4-(4-{[3-(1-piperidinyl)propyl]oxy}phenyl)piperazine] | > 6.5 |  |
| COCCN1CCC(Oc2ccc(CN3CCN(C(=O)c4ccccc4)CC3)cc2)CC1 [Example E34, 1-(4-{4-[1-(2-Methoxy-ethyl)-piperidin-4-yloxy]-benzyl}-piperazin-1-yl)-1-phenyl-methanone] | > 6.5 |  |
| O=C(c1ccnc2ccccc12)N1CCN(c2ccc(OCCCN3CCCCC3)cc2)CC1 [Example E393, 4-{[4-(4-{[3-(1-Piperidinyl)propyl]oxy}phenyl)-1-piperazinyl]carbonyl}quinoline] | > 8.4 | antagonism in the histamine H3 functional antagonist assay (pKb) (listed as Example 393): > 6.5 pKb |
| N#Cc1ccc(CC(=O)N2CCN(c3ccc(OCCCN4CCCCC4)cc3)CC2)cc1 [Example E408, 4-{2-Oxo-2-[4-(4-{[3-(1-piperidinyl)propyl]oxy}phenyl)-1-piperazinyl]ethyl}benzonitrile] | > 6.5 |  |
| O=C(C1CCCCC1)N1CCN(C(=O)N2CCN(c3ccc(OCCCN4CCCCC4)cc3)CC2)CC1 [Example E289, 1-(Cyclohexylcarbonyl)-4-{[4-(4-{[3-(1-piperidinyl)propyl]oxy}phenyl)-1-piperazinyl]carbonyl}piperazine] | > 6.5 |  |
| N#Cc1ccc(CCC(=O)N2CCN(c3ccc(OCCCN4CCCCC4)cc3)CC2)cc1 [Example E416, 4-{3-Oxo-3-[4-(4-{[3-(1-piperidinyl)propyl]oxy}phenyl)-1-piperazinyl]propyl}benzonitrile] | > 6.5 |  |
| C[C@H]1CN(c2ccc(OCCCN3CCCCC3)cc2)CCN1C(=O)c1ccc(S(C)(=O)=O)cc1 [Example E323, (2S)-2-Methyl-1-{[4-(methylsulfonyl)phenyl]carbonyl}-4-(4-{[3-(1-piperidinyl)propyl]oxy}phenyl)piperazine] | > 8.4 | antagonism in the histamine H3 functional antagonist assay (pKb) (listed as Example 323): > 6.5 pKb |
| O=C(NC1CC1)N1CCN(c2ccc(OCCCN3CCCCC3)cc2)CC1 [Example E48, 4-[4-(3-Piperidin-1-yl-propoxy)-phenyl]piperazine-1-carboxylic acid cyclopropylamide] | > 8.4 | antagonism in the histamine H3 functional antagonist assay (pKb) (listed as Example E48): > 6.5 pKb |
